{"source": "patent US20260193317A1", "about": "“COMBINATION THERAPY WITH ACTRIIB RECEPTOR VARIANTS AND GLP-1 AGONISTS” (35PHARMA Inc., priority 2023, published 2026)", "molecules": {"B1": {"name": "P1206: hActRIIB L33F, 14 aa linker, IgG1-DL Fc; SEQ ID 206 (protein)", "chain": "ETRECIYYNANWELERTNQSGLERCEGEQDKRFHCYASWRNSSGTIELVKKGCWLDDFNCYDRQECVATEENPQVYFCCCEGNFCNERFTHLPEAGGPEVTYEPPPTGGGGSGGGGSGG[human IgG1 Fc and a few adjoining residues not spelt out]"}, "B2": {"name": "P1275: hActRIIB L33Y, L55I, 14 aa linker, IgG1-DL Fc; SEQ ID 229 (protein)", "chain": "ETRECIYYNANWELERTNQSGLERCEGEQDKRYHCYASWRNSSGTIELVKKGCWIDDFNCYDRQECVATEENPQVYFCCCEGNFCNERFTHLPEAGGPEVTYEPPPTGGGGSGGGGSGG[human IgG1 Fc and a few adjoining residues not spelt out]"}, "B3": {"name": "P1273: hActRIIB L33Y, L55Q, 14 aa linker, IgG1-DL Fc; SEQ ID 227 (protein)", "chain": "ETRECIYYNANWELERTNQSGLERCEGEQDKRYHCYASWRNSSGTIELVKKGCWQDDFNCYDRQECVATEENPQVYFCCCEGNFCNERFTHLPEAGGPEVTYEPPPTGGGGSGGGGSGG[human IgG1 Fc and a few adjoining residues not spelt out]"}, "B4": {"name": "P1232: hActRIIB L33M, 14 aa linker, IgG1-DL Fc; SEQ ID 214 (protein)", "chain": "ETRECIYYNANWELERTNQSGLERCEGEQDKRMHCYASWRNSSGTIELVKKGCWLDDFNCYDRQECVATEENPQVYFCCCEGNFCNERFTHLPEAGGPEVTYEPPPTGGGGSGGGGSGG[human IgG1 Fc and a few adjoining residues not spelt out]"}, "B5": {"name": "P1272: hActRIIB L33Y, L55Y, 14 aa linker, IgG1-DL Fc; SEQ ID 226 (protein)", "chain": "ETRECIYYNANWELERTNQSGLERCEGEQDKRYHCYASWRNSSGTIELVKKGCWYDDFNCYDRQECVATEENPQVYFCCCEGNFCNERFTHLPEAGGPEVTYEPPPTGGGGSGGGGSGG[human IgG1 Fc and a few adjoining residues not spelt out]"}, "B6": {"name": "P1239: hActRIIB L33Y G27M, 14 aa linker, IgG1-DL Fc; SEQ ID 219 (protein)", "chain": "ETRECIYYNANWELERTNQSGLERCEMEQDKRYHCYASWRNSSGTIELVKKGCWLDDFNCYDRQECVATEENPQVYFCCCEGNFCNERFTHLPEAGGPEVTYEPPPTGGGGSGGGGSGG[human IgG1 Fc and a few adjoining residues not spelt out]"}, "B7": {"name": "P1412: hActRIIB L14N, L33Y, 19 aa linker, IgG1-DL Fc; SEQ ID 251 (protein)", "chain": "ETRECIYYNANWENERTNQSGLERCEGEQDKRYHCYASWRNSSGTIELVKKGCWLDDFNCYDRQECVATEENPQVYFCCCEGNFCNERFTHLPEAGGPEVTYEPPPTGGGGSGGGGSGGGGSGG[human IgG1 Fc and a few adjoining residues not spelt out]"}, "B8": {"name": "P1181: hActRIIB L33Y G27D, 10 aa linker, IgG1-DL Fc; SEQ ID 193 (protein)", "chain": "ETRECIYYNANWELERTNQSGLERCEDEQDKRYHCYASWRNSSGTIELVKKGCWLDDFNCYDRQECVATEENPQVYFCCCEGNFCNERFTHLPEAGGPEVTYEPPPTGGGGSGGG[human IgG1 Fc and a few adjoining residues not spelt out]"}, "B9": {"name": "P777: hActRIIB L33Y, 3 aa linker, IgG1-DL Fc; SEQ ID 180 (protein)", "chain": "ETRECIYYNANWELERTNQSGLERCEGEQDKRYHCYASWRNSSGTIELVKKGCWLDDFNCYDRQECVATEENPQVYFCCCEGNFCNERFTHLPEAGGPEVTYEPPPTG[human IgG1 Fc and a few adjoining residues not spelt out]"}, "B10": {"name": "P1177: hActRIIB L33Y T69E, 3 aa linker, IgG1-DL Fc; SEQ ID 189 (protein)", "chain": "ETRECIYYNANWELERTNQSGLERCEGEQDKRYHCYASWRNSSGTIELVKKGCWLDDFNCYDRQECVAEEENPQVYFCCCEGNFCNERFTHLPEAGGPEVTYEPPPTG[human IgG1 Fc and a few adjoining residues not spelt out]"}, "B11": {"name": "P1174: hActRIIB L33Y T69Q, 3 aa linker, IgG1-DL Fc; SEQ ID 186 (protein)", "chain": "ETRECIYYNANWELERTNQSGLERCEGEQDKRYHCYASWRNSSGTIELVKKGCWLDDFNCYDRQECVAQEENPQVYFCCCEGNFCNERFTHLPEAGGPEVTYEPPPTG[human IgG1 Fc and a few adjoining residues not spelt out]"}, "B12": {"name": "P1230: hActRIIB L33E, 14 aa linker, IgG1-DL Fc; SEQ ID 212 (protein)", "chain": "ETRECIYYNANWELERTNQSGLERCEGEQDKREHCYASWRNSSGTIELVKKGCWLDDFNCYDRQECVATEENPQVYFCCCEGNFCNERFTHLPEAGGPEVTYEPPPTGGGGSGGGGSGG[human IgG1 Fc and a few adjoining residues not spelt out]"}, "B13": {"name": "P1271: hActRIIB L33Y, L14S, 14 aa linker, IgG1-DL Fc; SEQ ID 225 (protein)", "chain": "ETRECIYYNANWESERTNQSGLERCEGEQDKRYHCYASWRNSSGTIELVKKGCWLDDFNCYDRQECVATEENPQVYFCCCEGNFCNERFTHLPEAGGPEVTYEPPPTGGGGSGGGGSGG[human IgG1 Fc and a few adjoining residues not spelt out]"}, "B14": {"name": "P1179: hActRIIB L33Y T69E, 14 aa linker, IgG1-DL Fc; SEQ ID 191 (protein)", "chain": "ETRECIYYNANWELERTNQSGLERCEGEQDKRYHCYASWRNSSGTIELVKKGCWLDDFNCYDRQECVAEEENPQVYFCCCEGNFCNERFTHLPEAGGPEVTYEPPPTGGGGSGGGGSGG[human IgG1 Fc and a few adjoining residues not spelt out]"}, "B15": {"name": "P1270: hActRIIB L33Y, L14H, 14 aa linker, IgG1-DL Fc; SEQ ID 224 (protein)", "chain": "ETRECIYYNANWEHERTNQSGLERCEGEQDKRYHCYASWRNSSGTIELVKKGCWLDDFNCYDRQECVATEENPQVYFCCCEGNFCNERFTHLPEAGGPEVTYEPPPTGGGGSGGGGSGG[human IgG1 Fc and a few adjoining residues not spelt out]"}, "B16": {"name": "P1237: hActRIIB L33Y G27K, 14 aa linker, IgG1-DL Fc; SEQ ID 217 (protein)", "chain": "ETRECIYYNANWELERTNQSGLERCEKEQDKRYHCYASWRNSSGTIELVKKGCWLDDFNCYDRQECVATEENPQVYFCCCEGNFCNERFTHLPEAGGPEVTYEPPPTGGGGSGGGGSGG[human IgG1 Fc and a few adjoining residues not spelt out]"}, "B17": {"name": "P1410: hActRIIB L14Q, L33Y, 19 aa linker, IgG1-DL Fc; SEQ ID 249 (protein)", "chain": "ETRECIYYNANWEQERTNQSGLERCEGEQDKRYHCYASWRNSSGTIELVKKGCWLDDFNCYDRQECVATEENPQVYFCCCEGNFCNERFTHLPEAGGPEVTYEPPPTGGGGSGGGGSGGGGSGG[human IgG1 Fc and a few adjoining residues not spelt out]"}, "B18": {"name": "P1175: hActRIIB L33Y T69Q, 10 aa linker, IgG1-DL Fc; SEQ ID 187 (protein)", "chain": "ETRECIYYNANWELERTNQSGLERCEGEQDKRYHCYASWRNSSGTIELVKKGCWLDDFNCYDRQECVAQEENPQVYFCCCEGNFCNERFTHLPEAGGPEVTYEPPPTGGGGSGGG[human IgG1 Fc and a few adjoining residues not spelt out]"}, "B19": {"name": "P1178: hActRIIB L33Y T69E, 10 aa linker, IgG1-DL Fc; SEQ ID 190 (protein)", "chain": "ETRECIYYNANWELERTNQSGLERCEGEQDKRYHCYASWRNSSGTIELVKKGCWLDDFNCYDRQECVAEEENPQVYFCCCEGNFCNERFTHLPEAGGPEVTYEPPPTGGGGSGGG[human IgG1 Fc and a few adjoining residues not spelt out]"}}}
{"biological_target": "T1, BMP-9 (Homo sapiens, UniProt Q9UK05)", "T1 sequence (Q9UK05 320-429)": "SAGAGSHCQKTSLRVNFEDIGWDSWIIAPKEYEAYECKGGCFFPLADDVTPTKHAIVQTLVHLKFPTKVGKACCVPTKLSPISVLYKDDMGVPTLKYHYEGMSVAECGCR", "assay": "Small-scale BMP-9 ELISA with CHO supernatants", "type": "binding", "settings": "BMP-9 10 ng/mL", "experimental": "(§1) Small-scale testing of ActRIIB-ECD fusion proteins. Additional investigation of a series of exemplary agents was performed using proteins expressed in CHO cells. Briefly, DNA encoding the ActRIIB-ECD-Fc fusion constructs was transfected in cells seeded in 12-well plates in a final volume of 1 ml. After 7 days, the supernatant was harvested, clarified, and the amount of expressed protein in each well was quantified using standard methods. The potency of each agent for inhibition of activin A, BMP-9 and BMP-10 was determined in three separate assays.\nThe next day, the plate was washed three times. […] Expressed proteins in the supernatants were diluted 1 in 2 in assay diluent (0.5% BSA, 0.05% tween-20 in PBS) and 100 μl was added to the 96-well plate in technical duplicates. After a 1.5-hour incubation at RT, the plate was washed three times. […] In this assay, a loss of signal indicates less binding of the exemplary agent to BMP-9. Results are expressed as a % of the signal obtained with wild-type ActRIIB-Fc (P75)."}
{"molecule": "B1", "BMP-9 binding, ELISA signal relative to P75": "intermediate binding between P444 and P75"}
{"molecule": "B2", "BMP-9 binding, ELISA signal relative to P75": "very low BMP-9 binding"}
{"molecule": "B3", "BMP-9 binding, ELISA signal relative to P75": "near-undetectable binding to BMP-9"}
{"molecule": "B4", "BMP-9 binding, ELISA signal relative to P75": "intermediate binding between P444 and P75"}
{"molecule": "B5", "BMP-9 binding, ELISA signal relative to P75": "intermediate binding between P444 and P75"}
{"molecule": "B6", "BMP-9 binding, ELISA signal relative to P75": "very low BMP-9 binding"}
{"molecule": "B7", "BMP-9 binding, ELISA signal relative to P75": "intermediate binding between P444 and P75"}
{"molecule": "B8", "BMP-9 binding, ELISA signal relative to P75": "very low BMP-9 binding"}
{"biological_target": "T2, activin A (Homo sapiens, UniProt P08476)", "T2 sequence (P08476 311-426)": "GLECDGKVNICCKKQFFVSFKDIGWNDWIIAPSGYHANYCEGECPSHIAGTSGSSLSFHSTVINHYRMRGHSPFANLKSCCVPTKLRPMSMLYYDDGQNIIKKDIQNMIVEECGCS", "assay": "Small-scale activin A ELISA with CHO supernatants", "settings": "1 μg/mL protein, 30 ng/mL activin A, loss of signal = binding", "experimental": "as §1\nThe next day, the plate was washed three times with buffer (Biolegend #421601). […] Expressed proteins in the supernatants described above were diluted to 2 μg/mL in assay diluent (0.5% BSA, 0.05% tween-20 in PBS), mixed 1:1 with recombinant human activin A (R&D #338-AC, 60 ng/mL, diluted in assay diluent). Complexes were immediately added to the 96-well plate in technical duplicates and incubated for 1 h at RT (concentration of expressed protein and activin A on the plate were 1 μg/mL and 30 ng/mL, respectively). […] In this assay, a loss of signal indicates binding of the exemplary agent to activin A, which prevents activin A binding to the anti-activin A antibody on the plate. Results are expressed as a % of the signal obtained with wild-type ActRIIB-Fc (P75)."}
{"molecule": "B9", "activin A binding, ELISA signal relative to P75": "lower binding to activin A relative to P75"}
{"molecule": "B10", "activin A binding, ELISA signal relative to P75": "lower binding to activin A relative to P75"}
{"molecule": "B11", "activin A binding, ELISA signal relative to P75": "lower binding to activin A relative to P75"}
{"molecule": "B12", "activin A binding, ELISA signal relative to P75": "lower binding to activin A relative to P75"}
{"molecule": "B1", "activin A binding, ELISA signal relative to P75": "potent activin A binding"}
{"molecule": "B2", "activin A binding, ELISA signal relative to P75": "comparable binding to activin A"}
{"molecule": "B3", "activin A binding, ELISA signal relative to P75": "lower binding to activin A relative to P75"}
{"molecule": "B13", "activin A binding, ELISA signal relative to P75": "potent activin A binding"}
{"molecule": "B5", "activin A binding, ELISA signal relative to P75": "lower binding to activin A relative to P75"}
{"molecule": "B14", "activin A binding, ELISA signal relative to P75": "comparable binding to activin A"}
{"molecule": "B15", "activin A binding, ELISA signal relative to P75": "potent activin A binding"}
{"molecule": "B16", "activin A binding, ELISA signal relative to P75": "comparable binding to activin A"}
{"molecule": "B17", "activin A binding, ELISA signal relative to P75": "potent activin A binding"}
{"molecule": "B7", "activin A binding, ELISA signal relative to P75": "potent activin A binding"}
{"molecule": "B18", "activin A binding, ELISA signal relative to P75": "comparable binding to activin A"}
{"molecule": "B19", "activin A binding, ELISA signal relative to P75": "comparable binding to activin A"}
